{"source": "PubChem BioAssay AID485294", "about": "(National Center for Advancing Translational Sciences (NCATS), 2010)", "note": "Among all 370,000 compounds or so, about 150 (0.041%) were called active. The inconclusive results got no clear call from the source; some entries with a clear call stand among them for comparison. Calls come from the whole dose curve; as a rule, active = well fitted inhibition curve with a large enough effect; inconclusive = small, poorly fitted or top-dose-only effect; inactive = flat fitted curve, though single readings scatter. Potencies of inconclusive entries are left out as doubtful fits. Potency is the fitted concentration of half-maximal effect; tags give direction and shape of the fitted curve."}
{"target": "Beta-lactamase (Escherichia coli (strain K12)) (UniProt P00811)", "sequence (P00811 whole entry, looked up)": "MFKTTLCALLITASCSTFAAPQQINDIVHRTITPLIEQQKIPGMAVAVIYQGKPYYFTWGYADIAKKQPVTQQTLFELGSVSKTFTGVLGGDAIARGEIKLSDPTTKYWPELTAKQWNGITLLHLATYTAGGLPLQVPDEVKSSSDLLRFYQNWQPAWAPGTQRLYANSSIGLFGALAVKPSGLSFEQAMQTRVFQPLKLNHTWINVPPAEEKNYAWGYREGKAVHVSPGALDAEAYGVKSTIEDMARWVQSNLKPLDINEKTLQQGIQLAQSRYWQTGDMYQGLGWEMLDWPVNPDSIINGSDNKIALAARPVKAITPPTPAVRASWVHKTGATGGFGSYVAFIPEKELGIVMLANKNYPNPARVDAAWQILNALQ", "test": "qHTS Inhibitors of AmpC Beta-Lactamase (assay with detergent); note: nearly all actives have a fitted effect of over 25% in size", "conditions": "AmpC hydrolysis of nitrocefin, absorbance 480 nm, 0.01% Triton; series mostly up to 114 µM", "procedure,_shortened": "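AmpC (5.3 nM in the dispensed reagent) in 20 mM phosphate pH 7.0 with 0.01% (detergent screen) or 0.0001% Triton X-100 was preincubated with compounds for 15 min at room temperature. Nitrocefin was then added from an 800 uM solution, and hydrolysis was followed at 480 nm.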"}
{"compound": "COc1ccc(OCC(=O)NNC(=O)C(=O)N2CCCC2)cc1", "Potency": "inactive"}
{"compound": "CCCOc1ccc(CCc2n[nH]c(=S)n2Cc2ccccc2)cc1", "Potency": "inactive"}
{"compound": "CCCNC(=O)OC[C@H]1O[C@H](CCO/N=C/[C@@H](NS(=O)(=O)c2ccc(C)cc2)[C@H](C)/C=C/CC(=O)OC)C=C[C@@H]1Oc1ccc(OC)cc1", "Potency": "inconclusive [inhibitor, partial curve, poor fit]"}
{"compound": "CCCCNC(=O)c1sc2ncnc(N3CCc4ccccc4C3)c2c1C", "Potency": "inconclusive [inhibitor, single point]"}
{"compound": "Cc1ccc(-c2cc(C(=O)NC3=NCCS3)c3cc(Br)ccc3n2)o1", "Potency": "inactive"}
{"compound": "CCn1c(SCC(=O)N2CCCC(C)C2)nnc1-c1ccco1", "note": "(centres undefined)", "Potency": "inactive"}
{"compound": "CCOC(=O)c1cc2cc(-c3c(C(=O)OCC)oc4cc(O)cc(O)c4c3=O)ccc2o1", "Potency": "inconclusive [inhibitor, full curve, poor fit]"}
{"compound": "Cc1ccccc1N(Cc1cc(=O)[nH]c2ccccc12)C(=O)CCl", "Potency": "inactive"}
{"compound": "CC(Oc1ccccc1)C(=O)NNC(=O)c1ccccn1", "note": "(centres undefined)", "Potency": "inactive"}
{"compound": "O=C(NCc1ccco1)C1CCCN1S(=O)(=O)c1ccc2ccccc2c1", "note": "(centres undefined)", "Potency": "inconclusive [inhibitor, full curve, poor fit]"}
{"compound": "CCOC(=O)C1(Cc2cccc(OC)c2)CCCN(C(=O)CNC(C)=O)C1", "note": "(centres undefined)", "Potency": "inconclusive [inhibitor, full curve, poor fit]"}
{"compound": "COc1ccc(/C(C)=N\\n2cnnc2)cc1", "Potency": "inconclusive [inhibitor, full curve]"}
{"compound": "CCN(CC(=O)NC(C)C)C(=O)c1ccc(Cl)cc1", "Potency": "inconclusive [inhibitor, full curve]"}
{"compound": "CCOC(=O)c1ccc(-c2ccc(/C=N/NC(=O)CN(c3cccc(C)c3)S(C)(=O)=O)o2)cc1", "Potency": "inconclusive [inhibitor, single point]"}
{"compound": "COC(=O)CCC(=O)Nc1ccc(Cl)c(Cl)c1", "Potency": "inconclusive [inhibitor, full curve, poor fit]"}
{"compound": "O=c1[nH]c2c(cnn2-c2ccc(Cl)cc2)c(=O)n1-c1cccc(Cl)c1", "Potency": "inconclusive [inhibitor, single point]"}
{"compound": "CCS(=O)(=O)Nc1cc2c3c(c1)CCN3C(=O)CC2", "Potency": "inconclusive [inhibitor, full curve, poor fit]"}
{"compound": "Cc1ccc(CC(=O)Nc2nccs2)cc1C", "Potency": "inactive"}
{"compound": "CCC1Oc2ccc(C)cc2N(CC(=O)N(Cc2ccc(C)o2)C2CCCC2)C1=O", "note": "(centres undefined)", "Potency": "inactive"}
{"compound": "CN(C)S(=O)(=O)c1ccc2oc(SCC(=O)Nc3ccccc3F)nc2c1", "Potency": "inconclusive [inhibitor, full curve]"}
{"compound": "COc1cc2c(cc1OC)CN(c1nc(CN3CCOCC3)nc3sc4c(c13)CCC(C)C4)CC2", "note": "(centres undefined)", "Potency": "inconclusive [inhibitor, partial curve, poor fit]"}
{"compound": "C=CCn1c(COc2ccc(CC)cc2)nnc1SCC(=O)N(C)C1CCS(=O)(=O)C1", "note": "(centres undefined)", "Potency": "inconclusive [inhibitor, full curve, poor fit]"}
{"compound": "COc1cc(OC)c(NC(=O)N2CC=C(c3c[nH]c4ccccc34)CC2)cc1Cl", "Potency": "inactive"}
{"compound": "COc1ccccc1NC(=O)c1ccccc1C(=O)O", "Potency": "inconclusive [inhibitor, single point]"}
{"compound": "CCc1ccc2[nH]c(=O)c(C(c3nnnn3Cc3ccccc3)N3CCOCC3)cc2c1", "note": "(centres undefined)", "Potency": "inconclusive [inhibitor, full curve, poor fit]"}
{"compound": "CCOc1ccc(NC(=O)C2CCN(C(=O)NC3CCCCC3)CC2)cc1", "Potency": "inconclusive [inhibitor, single point]"}
{"compound": "Cn1ncc(Cl)c1C(=O)N/N=C/c1ccccn1", "Potency": "inactive"}
{"compound": "O=C(O)c1ccc(C2Nc3ccccc3-c3nnc(SCc4ccc(Cl)cc4)nc3O2)cc1", "note": "(centres undefined)", "Potency": "inactive"}
{"compound": "Cc1nn(CCCC(=O)O)c(C)c1[N+](=O)[O-]", "Potency": "inconclusive [inhibitor, full curve, poor fit]"}
{"compound": "Cc1ccc2nc(N(Cc3cccnc3)C(=O)CCOc3ccccc3)sc2c1", "Potency": "inactive"}
{"compound": "COc1cc(OC)c(NC2=NCCCCC2)cc1Cl", "Potency": "inconclusive [inhibitor, partial curve]"}
{"compound": "O=C(Cc1cccc2ccccc12)N/N=C/c1ccc(Sc2nc3ccccc3s2)o1", "Potency": "inactive"}
{"compound": "CCc1cc2c(cc3c(=O)n(CC(=O)NCCOC)nc(CC)n32)s1", "Potency": "inactive"}
{"compound": "COC(=O)c1ccc(CNC(=O)CN(CCC(C)C)S(=O)(=O)c2ccc3c(c2)OCCO3)cc1", "Potency": "inconclusive [inhibitor, partial curve, poor fit]"}
{"compound": "O=C(Cn1c(=O)oc2cc(S(=O)(=O)N3CCCCCC3)ccc21)NC1CCCCCCC1", "Potency": "inconclusive [inhibitor, full curve, poor fit]"}
{"compound": "CCc1nnc(NC(=O)c2ccc(-c3ccc(F)cc3)o2)s1", "Potency": "inconclusive [inhibitor, full curve, poor fit]"}
{"compound": "NS(=O)(=O)c1ccc(CCNC(=O)c2ccco2)cc1", "Potency": "inconclusive [inhibitor, partial curve, poor fit]"}
{"compound": "COc1ccc2[nH]c(=O)c(CN(CCO)S(=O)(=O)c3c(C)ccc4nsnc34)cc2c1", "Potency": "inconclusive [inhibitor, full curve, poor fit]"}
{"compound": "Cc1cc(NC(=O)CSc2nnc(CNc3ccc(F)cc3)n2C2CCCCC2)no1", "Potency": "inconclusive [inhibitor, full curve, poor fit]"}
{"compound": "COc1ccc(CNC(=O)C(c2ccncc2)N(C(=O)Cc2cccs2)c2cccnc2)cc1", "note": "(centres undefined)", "Potency": "inactive"}
{"compound": "O=C(Nc1ccc(-c2csc(Nc3ccccc3)n2)cc1)c1cc([N+](=O)[O-])cc(C(F)(F)F)c1", "Potency": "inactive"}
{"compound": "c1ccc(Cn2ncc3ccccc32)cc1", "Potency": "inconclusive [inhibitor, full curve]"}
{"compound": "CSc1ccc(C2C(C(=O)c3ccco3)=C(O)C(=O)N2c2nnc(SC)s2)cc1", "note": "(centres undefined)", "Potency": "inactive"}
{"compound": "CCCCCCSc1ncc(C#N)c(N)n1", "Potency": "inconclusive [inhibitor, full curve, poor fit]"}
